Results: the supplement of paper PMC11417369
The other results are listed elsewhere or left out.

What follows are sequences tested on PfSIP2 AP2 domain 1 (GST-tagged) (assay: gcPBM binding intensity (ln(normalized median fluorescence intensity)); higher = stronger DNA binding).
Method in brief: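 GST-tagged P. falciparum DNA-binding domains produced in E. coli were incubated for 1 h on an Agilent 4 × 180k array of primer-extended double-stranded 36-bp intergenic genomic probes with negative controls. Binding intensity is the highest Masliner-normalised natural-log median intensity across replicate spots of either probe orientation, with bound protein detected by Alexa488 anti-GST antibody at 488 nm.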

Sequence | gcPBM binding intensity (ln)
TATAGCATATCTCACACACACATAATGAATATTATA [CACACA_site5877] | 7.03
AAAATGAACTCACGAGCACACACACCCATATATATA [CACACA_site8247] | 7.68
TGTATTATATAAAATTGTACATGCGAATTGTATAAC [XGTACX_site902] | 7.22
TATAGCTATGTATTCACACATAATATAAACTTTAAT [CACACA_site5889] | 6.84
AAAGGATGTAATATAAACATATATATGTATATATAT [TGCATGCA_negctrl_site347] | 7.42
ATAAAATGAAATATATATGTGTATGCTTAACTTGTT [CACACA_negctrl_site431] | 6.73
TAATTTTTTTTAATAACACACATATATATATATATA [CACACA_site813] | 9.64
ATTGTTTTATATAGAACACACATAAAAATATATATG [CACACA_site1193] | 7.01
TAATATTCCTTTTTAACACACATATGAACAAATAAA [CACACA_site153] | 7.11
CACAAAAATGTAATCACACATATATATATATATATA [CACACA_site5818] | 9.46
TATGTGATAACACGCACACAAATGTATTTAATTTAT [CACACA_site5435] | 6.85
AAAAAATGAAAATATTCCAAAATAGAGGGAAATGTA [GTGCAC_negctrl_site572] | 6.96
ATTCTAATAATATATACACACACATATATATTTATA [CACACA_site8629] | 7.23
TTATATTTATATATTTGTACGTATGTATATAATTCA [XGTACX_site2993] | 7.17
CTTTTTTAAAATATTTAACACACAATTTTAATGCAT [CACACA_site9303] | 7.07
AAAATTAGGAGACATGCATGTAACGATAAATATAAC [TGCATGCA_site148] | 7.41
GTTACATACATATACACACACATATATATATATATA [CACACA_site901] | 9.32
TAAATAATTCTTTTAGTACACACGAATAAGCAGATA [CACACA_site305] | 7.14
TAATTTTTATTCAAGAGTACACAAAAGATAACTAAA [XGTACX_site4060] | 7.27

Sequence | gcPBM binding intensity (ln)
TAAAAAAAATCATTCACACATATATGAAAAAAAAAA [CACACA_site5546] | 6.72
TAGATACCTATAGAAACATGCAATTGAATATATTTC [TGCATGCA_site402] | 6.67
TTCTTACACGTTTGCACACTAAAATATATATATATA [CACACA_site434] | 8.99
CTTGAAAGATTTTATTGTACTCATAAGATACATTTC [XGTACX_site3178] | 7.01
TCATACAATATTAAATGTACATATATATATATATAT [XGTACX_site8828] | 8.99
ATATTAAAGCCTTTTTGTACATATAAATAAACATAG [XGTACX_site4667] | 7.16
TATATATTATATATATGTACATAATTCCATGTTTAG [XGTACX_site3943] | 7.16
AACTCTTAAAAATAAACATGCAAATATTTACCTTCT [TGCATGCA_site986] | 6.95
ATTTTTTTTTTTTTTTTTCATTTTTTTTTTTTTTTT [CACACA_negctrl_site1204] | 7.39
TTTTTTTTCTTTTTTTTTTTTTCAAAAGCTTATAAT [CACACA_negctrl_site1526] | 6.77
TGTATAATCATATATACACACACATATATATATATA [CACACA_site8674] | 9.59
TTATATAAAAAAAAATGTACATATAATTGGTAAATT [XGTACX_site5180] | 6.99
GTGTATTTGGTGCGCACACACATGCAAAAAGAAATA [CACACA_site4768] | 11.6
TTGAAAATAATATGAAGTACATTATTTTTTTTTAAT [XGTACX_site4499] | 6.97
AAAAATATTTAAAATACACACATATATATAATATAT [CACACA_site2006] | 6.96
AAAACTTTCCATGTTTGTACATAAAATATAATAATT [XGTACX_site2716] | 7.01
AAAATGAACAAACACACACACATATATATATATATA [CACACA_site2403] | 9.27
AAAAATGTATGTATGGTGCAGTATTCATATCATTTT [GTGCAC_site9458] | 10.2
TTATTGTGTAAGATGATTTTCTTCGTCACTTTGAAA [CACACA_negctrl_site1814] | 6.66

Sequence | gcPBM binding intensity (ln)
TCTTGAAAAAGAATCAATCGGTCGACAAAAAAAAAA [CACACA_negctrl_site1099] | 6.88
ATATTCTTGTTTAATACACACTGTAGTATTATAGAT [CACACA_site6341] | 7.04
TTTTTTAATATTTATTAATTAAACTTTGTTTTTGTT [XGTACX_negctrl_site454] | 6.66
AAAAAACACTTAAGGTGTACCTTTTAATATAAGTAT [XGTACX_site2397] | 6.8
AACCATAACTCATATGCACACATAAATATTACATAT [CACACA_site9273] | 7.34
TGGAGGATAGTTCACAGTACCCAGTAACTCTACGGA [XGTACX_site4930] | 6.6
AAAGTATAAATAAATACACACATATATATATATATA [CACACA_site2892] | 9.39
TACATTCGGAGTAAAAAAAAATTTATACAATTACTT [XGTACX_negctrl_site29] | 6.62
TGTGTATATAAATAATGTACATATATATTTTTTTAT [XGTACX_site7341] | 7.18
GTAAAAAAAAAAAAAAGTACATTATACATATATTTA [XGTACX_site5447] | 6.85
TTTTATAATGTTGTAGTGCAAAATACGTATATTTAT [GTGCAC_site9826] | 8.05
AATAAATATATGTACACACACAAATATATACATATC [CACACA_site1903] | 7.08
AAAATATATATTAACACACACACAAAAAAAAAAAAA [CACACA_site1325] | 7.13
AGATATAAGAAAAGCACACACACACCCAAAAAAAAA [CACACA_site2826] | 7.04
GAAAATTATATGTGTTGTACACTTGCAACAACTATT [XGTACX_site3637] | 7.04
ATATAAATATTTATTAGTACACATTAGTGTAGTTTT [XGTACX_site4493] | 6.96
CTATATTATTTTTCTTGTACGTAGGAAATATAGCTA [XGTACX_site6176] | 7.12
AATATATGGTTTCATTATATTAAATTCAATTTAATG [CACACA_negctrl_site675] | 6.75
